Source: article PMC11952830, “Cdc42EP3-bound septin scaffolds promote actin polymerization” (The Journal of Biological Chemistry, 2025)

Columns and labels:
Settings in all cases: both partners purified
actin (rabbit muscle) [1] = biological target: T1, actin (rabbit muscle) (rabbit, UniProt P68135); assay: fluorescence polarisation; fluorescence anisotropy; 20 nM TMR-Cdc42EP3 fixed, actin monomer titrated with 20 uM Latrunculin A; 1x KMEI, 1 mg/ml BSA; single-site fit
[2] = biological target: T2, SEPT2/6/7 (wild type septin complex; hexamers polymerized to filaments) (UniProt Q15019 1-361; Q14141 1-434; Q16181 1-437); assay: fluorescence polarisation; fluorescence anisotropy; 20 nM TMR-Cdc42EP3 fixed, SEPT2/6/7 filaments titrated; 1x KMEI, 1 mg/ml BSA; single-site fit
T2 construct: SEPT2, from a pET15-derived plasmid expressing His6-SEPT2 (gift from Elias Spiliotis); SEPT6, from a pCDF-derived plasmid expressing SEPT6 and SEPT7 (gift from Elias Spiliotis); SEPT7, from a pCDF-derived plasmid expressing SEPT6 and SEPT7 (gift from Elias Spiliotis); in the assays it stood as filaments, polymers of hexamers; also called SEPT2/6/7 filaments; septin filaments; source: E. coli …
T2 sequence (looked up) 1: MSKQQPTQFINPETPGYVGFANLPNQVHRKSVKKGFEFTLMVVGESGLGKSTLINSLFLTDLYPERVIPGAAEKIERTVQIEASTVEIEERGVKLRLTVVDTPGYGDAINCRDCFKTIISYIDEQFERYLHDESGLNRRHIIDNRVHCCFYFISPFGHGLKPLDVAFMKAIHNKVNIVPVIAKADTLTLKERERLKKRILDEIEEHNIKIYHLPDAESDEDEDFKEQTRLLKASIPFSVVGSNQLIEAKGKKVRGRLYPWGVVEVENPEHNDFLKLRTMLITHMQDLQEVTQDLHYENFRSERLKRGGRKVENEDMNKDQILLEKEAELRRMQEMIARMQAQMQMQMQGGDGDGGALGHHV
T2 sequence (looked up) 2: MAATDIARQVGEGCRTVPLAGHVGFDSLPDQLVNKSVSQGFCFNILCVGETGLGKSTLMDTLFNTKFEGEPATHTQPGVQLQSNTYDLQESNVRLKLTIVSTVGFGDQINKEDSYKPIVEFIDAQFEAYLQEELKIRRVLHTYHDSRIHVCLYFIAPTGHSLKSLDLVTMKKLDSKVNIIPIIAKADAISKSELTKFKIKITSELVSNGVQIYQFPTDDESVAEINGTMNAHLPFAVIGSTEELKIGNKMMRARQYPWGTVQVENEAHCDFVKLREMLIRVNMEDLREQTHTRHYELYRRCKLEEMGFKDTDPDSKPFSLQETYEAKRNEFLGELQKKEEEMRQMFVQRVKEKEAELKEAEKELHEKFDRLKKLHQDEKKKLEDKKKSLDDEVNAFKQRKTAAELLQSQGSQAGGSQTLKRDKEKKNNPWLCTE
T2 sequence (looked up) 3: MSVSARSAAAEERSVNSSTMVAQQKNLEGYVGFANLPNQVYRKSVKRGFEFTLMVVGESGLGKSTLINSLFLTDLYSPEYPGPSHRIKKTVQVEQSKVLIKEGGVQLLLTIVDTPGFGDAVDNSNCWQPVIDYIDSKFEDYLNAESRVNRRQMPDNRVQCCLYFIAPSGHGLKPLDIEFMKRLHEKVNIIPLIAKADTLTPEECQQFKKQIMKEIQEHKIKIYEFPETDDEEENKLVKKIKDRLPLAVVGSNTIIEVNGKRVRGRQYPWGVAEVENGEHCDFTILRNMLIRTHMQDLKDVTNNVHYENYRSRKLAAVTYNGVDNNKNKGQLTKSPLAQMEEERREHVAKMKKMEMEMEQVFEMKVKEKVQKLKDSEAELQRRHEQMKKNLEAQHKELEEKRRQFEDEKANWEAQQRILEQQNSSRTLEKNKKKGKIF

actin (rabbit muscle) [3] = biological target: T1, actin (rabbit muscle); assay: fluorescence polarisation; fluorescence anisotropy; 20 nM TMR-labeled Cdc42EP3 or variant fixed, actin filaments (polymerized in 1x KMEI) titrated; 1 mg/ml BSA; single-site fit

B1: Cdc42EP3 labeled with tetramethylrhodamine (TMR) at C211 (natural protein)
chain: not shown
modifications: tetramethylrhodamine (TMR-5-maleimide) at C211
notes: Cdc42EP3 (BORG2), human, single-cysteine construct whose unique cysteine is C211; also called Cdc42EP3-TMR F.A. probe; TMR labeled Cdc42EP3; source: E. coli BL21(DE3)-T1R, purified (amylose, TEV cleavage, Mono S), labeled with TMR-5-maleimide, Superdex 200; not shown: MBP, N-terminal, cleaved
- Kd (actin (rabbit muscle) [1]): 1.2 µM
- Kd [2]: 0.4 µM
- Kd (actin (rabbit muscle) [3]): 1.7 µM
